In PubChem BioAssay AID445 (National Center for Advancing Translational Sciences (NCATS), 2006):
About 40 (0.04%) of roughly 110,000 compounds were called active. The shares of active, inactive and inconclusive entries below differ from those in the screen. Calls follow the shape of the dose curve; as a rule, active = well fitted curve in the direction sought with a large enough effect in the signal ratio (not every such curve was filed as active); inconclusive = small, poorly fitted or top-dose-only effect, or a change in a side signal; inactive = flat fitted curve, though single readings scatter; the % refers to the signal ratio. A potency beside an inconclusive call is a rough fit, not a confirmed value.

Experiment: IkB Signaling;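 as to IkBa stabilization activation: 0% = basal untreated cells and 100% = reference inhibitor full response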
Conditions: ABC-DLBCL IkBa-CBG/CBR dual luciferase ratio (green luciferase fused to IkBa over red control in OCI-Ly3 lymphoma cells), 4 h; IkBa stabilization activation: at 57.1 µM (top of the series), scaled: untreated 0%, proteasome inhibitor 100% unless noted
Method in brief: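 Curves were fitted separately to fusion (green), unfused (red) and ratio luminescence, then classed by r2, magnitude and activity. Cells: OCI-Ly3, 4 h compound plus doxycycline at 37C; 10 uM MG-132 defined full response.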
Potency is read from the fitted curve at half-maximal effect.

Question: Which IkBa stabilization activation does the source give for `O=c1[nH]c(=O)n(C2CCCCC2)c(O)c1C1=Nc2ccccc2SC(c2ccccc2)C1` (stereo not given) here?
Answer: inconclusive: 2.08% [signal inhibitor]

Question: For `COc1ccccc1NC(=O)C1=C(C)Nc2nc(SCc3ccccc3Cl)nn2C1c1ccccn1` (stereo not given), which IkBa stabilization activation is on record?
Answer: inconclusive: 3.24% [signal inhibitor]

Question: For `CN(C)c1ccc(/C=C/c2noc(-c3ccccc3O)n2)cc1`, which IkBa stabilization activation is on record?
Answer: inconclusive: 18.9% [signal inhibitor]

Question: For `Cc1cccc(OCC(=O)N(Cc2ccc(C(C)(C)C)cc2)Cc2ccco2)c1`, which IkBa stabilization activation is on record?
Answer: inconclusive: 0.95% [signal inhibitor]

Question: Which IkBa stabilization activation does the source give for `Cc1ccc(C(c2cccc(Br)c2)c2c(C)[nH]c3ccccc23)s1` (stereo not given) here?
Answer: inconclusive: 2.66% [signal inhibitor]

Question: With `O=c1c2ccccc2n2c(-c3ccc(Cl)cc3)nnc2n1CCc1ccccc1` as the molecule, how does the “IkBa stabilization activation” value read?
Answer: inactive: 6.03%

Question: With `COCCCNc1nc(NCc2cccc(Cl)c2)c2cnn(C)c2n1` as the molecule, how does the IkBa stabilization activation read?
Answer: inconclusive: 3.34% [signal inhibitor]

Question: With `COc1cc(OC)c(NC(=O)N2CC3CCCN3c3ccccc32)cc1Cl` (stereo not given) as the molecule, how does the IkBa stabilization activation read?
Answer: inconclusive: 3.33% [signal inhibitor]

Question: Which IkBa stabilization activation does the source give for `CCC1CN(C(=O)N2CCC(C(=O)Nc3ccccc3F)CC2)c2ccccc2O1` (stereo not given) here?
Answer: inconclusive: -0.642% [signal inhibitor]

Question: For `CC(C)(CC(=O)N1CCN(c2ccc(Cl)cc2)CC1)CC1=NS(=O)(=O)c2ccccc2N1`, which IkBa stabilization activation is on record?
Answer: inconclusive: -3.91% [signal inhibitor]

Question: With `O=c1[nH]c(C2CCCN(S(=O)(=O)c3ccccc3)C2)nc2c1nnn2Cc1ccccc1` (stereo not given) as the molecule, how does the “IkBa stabilization activation” value read?
Answer: inactive: 8.39%

Question: With `Cc1ccc(CCNC(=O)c2ccc3c(Cl)c4c(nc3c2)CCCC4)cc1` as the molecule, how does the IkBa stabilization activation read?
Answer: inconclusive: 2.45% [signal inhibitor]

Question: For `Cc1ccc(C)c(N2CCN(c3c(CN4CCCC4)c(=O)oc4ccccc34)CC2)c1`, which IkBa stabilization activation is on record?
Answer: inconclusive: 16.1% [signal inhibitor]

Question: Which IkBa stabilization activation does the source give for `O=C(Nc1cccc(Cl)c1Cl)c1cc(S(=O)(=O)NCc2ccc3c(c2)OCO3)ccc1F` here?
Answer: inconclusive: 2.5% [signal inhibitor]

Question: With `CCCCNC(=O)CN1C(=O)C(CC)Oc2ccc(Cl)cc21` (stereo not given) as the molecule, how does the “IkBa stabilization activation” value read?
Answer: inactive: 0.485%

Question: With `Cc1cccc2cc(C#N)c(NCCNS(=O)(=O)c3ccc4c(c3)OCCO4)nc12` as the molecule, how does the IkBa stabilization activation read?
Answer: inconclusive: 1.85% [signal inhibitor]

Question: Which Potency does the source give for `CCCCSc1nnc2c(n1)OC(c1ccc(Br)s1)N(C(C)=O)c1ccccc1-2` (stereo not given) here?
Answer: inconclusive: 1 µM [signal inhibitor, full curve]

Question: Which IkBa stabilization activation does the source give for `CSc1ccc(CCNC(=O)Cn2ccc3cc(S(=O)(=O)N4CCCCCC4)ccc32)cc1` here?
Answer: inconclusive: 1.45% [signal inhibitor]

Question: For `Cc1c(C(=O)Nc2ccc(C(=O)O)cc2)nnn1-c1ccccc1`, which IkBa stabilization activation is on record?
Answer: inconclusive: 14% [signal inhibitor]

Question: Which IkBa stabilization activation does the source give for `Cc1ccc(CN2CCCN(CC(=O)Nc3ccc(C)cc3C)S2(=O)=O)cc1` here?
Answer: inconclusive: -0.162% [signal inhibitor]

Question: Which Potency does the source give for `O=C(Nc1ccc2c(c1)nc1n2CCOC1)c1ccco1` here?
Answer: inconclusive: 25.1 µM [signal inhibitor, partial curve]

Question: Which IkBa stabilization activation does the source give for `Cc1ccc(CNc2ccc3c(c2)OCO3)cc1` here?
Answer: inconclusive: 2.39% [signal inhibitor]

Question: For `COc1ccc(CNC(=O)C2CCCN(S(=O)(=O)c3cccc4nsnc34)C2)cc1` (stereo not given), which IkBa stabilization activation is on record?
Answer: inconclusive: 0.574% [signal inhibitor]

Question: Which “IkBa stabilization activation” value does the source give for `COc1ccc(OC)c(Nc2nc(-c3cccs3)cs2)c1` here?
Answer: inactive: 5.28%

Question: With `Cc1nnc(NC(=O)c2ccco2)s1` as the molecule, how does the “IkBa stabilization activation” value read?
Answer: inactive: 2.39%

Question: Which IkBa stabilization activation does the source give for `Nc1c(C(=O)Nc2ccc(OC(F)(F)F)cc2)sc2nc(-c3ccncc3)ccc12` here?
Answer: inconclusive: 3.27% [signal inhibitor]

Question: Which IkBa stabilization activation does the source give for `Cc1nn2c(=O)cc(COC(=O)Cc3ccccc3)nc2s1` here?
Answer: inconclusive: 4.65% [signal activator]

Question: With `CCOc1ccccc1-c1noc(CSc2nnc(-c3ccccc3)n2-c2ccc(F)cc2)n1` as the molecule, how does the “IkBa stabilization activation” value read?
Answer: inactive: -0.28%

Question: Which “IkBa stabilization activation” value does the source give for `CCOc1ccc(/C(O)=C2/C(=O)C(=O)N(CCOCCO)C2c2cccnc2)cc1` (stereo not given) here?
Answer: inactive: 0.147%

Question: With `CCc1ccc(-c2cn3c(n2)sc2cc(C(=O)NC4CCCCC4)ccc23)cc1` as the molecule, how does the IkBa stabilization activation read?
Answer: inconclusive: 2.16% [signal inhibitor]

Question: Which “IkBa stabilization activation” value does the source give for `O=C(Nc1ccc(OC(=O)c2ccco2)cc1)c1ccco1` here?
Answer: inactive: -0.141%

Question: For `COC(=O)c1cc(OC)c(OC)cc1NC(=O)c1c(-c2ccccc2Cl)noc1C`, which “IkBa stabilization activation” value is on record?
Answer: inactive: 2.23%

Question: With `COc1cccc(C(=O)Nc2cccc(OCc3cc(=O)n4c5c(sc4n3)CCCC5)c2)c1` as the molecule, how does the IkBa stabilization activation read?
Answer: inconclusive: 17.6% [signal inhibitor]

Question: Which “IkBa stabilization activation” value does the source give for `COc1ccc(NC(=O)Nc2ccc(C(=O)N3CCOCC3)cc2)cc1` here?
Answer: inactive: 0.295%

Question: Which IkBa stabilization activation does the source give for `COc1ccc2oc(=O)c(C(=O)NCCc3c(C)[nH]c4ccc(F)cc34)cc2c1` here?
Answer: inconclusive: 8.37% [signal inhibitor]

Question: For `COCCNc1oc(-c2ccccc2)nc1S(=O)(=O)c1ccc(Br)cc1`, which IkBa stabilization activation is on record?
Answer: inconclusive: 2.12% [signal inhibitor]

Question: For `COc1ccc2sc(N(Cc3cccnc3)C(=O)c3ccc4c(c3)OCCO4)nc2c1`, which IkBa stabilization activation is on record?
Answer: inconclusive: 6.2% [signal inhibitor]

Question: For `COc1ccc(O)c(/C=c2/sc3nc4cc(C)c(C)cc4n3c2=O)c1`, which IkBa stabilization activation is on record?
Answer: inconclusive: 4.27% [signal inhibitor]

Question: For `O=C1c2sc3nc4ccccc4n3c2C(=O)N1c1ccccc1Cl`, which IkBa stabilization activation is on record?
Answer: inconclusive: 7.79% [signal inhibitor]

Question: Which Potency does the source give for `CCc1ccc(S(=O)(=O)N(C(=O)c2ccncc2)c2ccc3oc(C)c(C(=O)OC)c3c2)cc1` here?
Answer: inconclusive: 3.98 µM [signal inhibitor]

Question: For `COc1ccc(CC(=O)N2CCc3cc(OC)c(OC)cc3C2COc2cc(C)cc(C)c2)cc1OC` (stereo not given), which IkBa stabilization activation is on record?
Answer: inconclusive: 1.29% [signal inhibitor]

Question: For `O=C(Nc1ccc(-n2nncc2-c2ccco2)cc1)c1cccc(F)c1`, which IkBa stabilization activation is on record?
Answer: inconclusive: 1.69% [signal inhibitor]

Question: With `CCOC(=O)c1ccc(N2C(=O)c3n[nH]c(-c4ccco4)c3C2c2ccc(C)cc2)cc1` (stereo not given) as the molecule, how does the IkBa stabilization activation read?
Answer: inconclusive: 2.43% [signal inhibitor]

Question: For `Cc1cc(C)cc(NC(=O)CCS(=O)(=O)c2cccc3nsnc23)c1`, which IkBa stabilization activation is on record?
Answer: inconclusive: 0.179% [signal inhibitor]

Question: With `COc1cccc(NC(=O)C(=O)NCC(c2ccc3c(c2)OCO3)N2CCN(C)CC2)c1` (stereo not given) as the molecule, how does the Potency read?
Answer: inconclusive: 31.6 µM [signal inhibitor, partial curve]

Question: For `CCn1cc(C(=O)NCc2ccco2)c(=O)c2cc(S(=O)(=O)N3CCc4ccccc4C3)ccc21`, which IkBa stabilization activation is on record?
Answer: inconclusive: 6.45% [signal inhibitor]

Question: Which IkBa stabilization activation does the source give for `CCc1ccc(N(CC)C(=O)c2cc3c(=O)oc4ccc(C)cc4c3s2)cc1` here?
Answer: inconclusive: 0.785% [signal inhibitor]

Question: For `O=C(c1ccco1)N1CCN(C(=O)c2cc(-c3ccccn3)nc3ccc(Cl)cc23)CC1`, which Potency is on record?
Answer: inconclusive: 31.6 µM [rising, partial curve]

Question: With `CC(C)Oc1cccc(-c2cc(C(=O)N3CCN(S(C)(=O)=O)CC3)c3ccccc3n2)c1` as the molecule, how does the “IkBa stabilization activation” value read?
Answer: inactive: -0.128%

Question: Which “IkBa stabilization activation” value does the source give for `Cc1cccc(NC(=O)c2sc(NC(=O)c3ccco3)c(C#N)c2C)c1C` here?
Answer: inactive: 1.13%

Question: For `CCN(CC)C(=O)C1=CC(c2ccc3c(c2)OCO3)=NS(=O)(=O)N1C`, which IkBa stabilization activation is on record?
Answer: inconclusive: -0.869% [signal inhibitor]

Question: Which “IkBa stabilization activation” value does the source give for `Cc1c(Cl)cccc1N1C(=O)c2ccccc2C1=O` here?
Answer: inactive: 5.7%

Question: For `COC(=O)c1ccc(CN(Cc2ccc(OC)c(OC)c2)S(=O)(=O)c2cc(C(=O)Nc3cccc(C)c3)ccc2F)cc1`, which IkBa stabilization activation is on record?
Answer: inconclusive: 1.87% [signal inhibitor]

Question: For `CCC(Oc1ccccc1)C(=O)Nc1ccc(OCc2cc(=O)n3ccc(C)cc3n2)cc1` (stereo not given), which IkBa stabilization activation is on record?
Answer: inconclusive: -1.33% [signal inhibitor]

Question: With `COc1ccccc1CNC(=O)c1ccc2c(c1)N(Cc1ccc(C)cc1)CCS2` as the molecule, how does the IkBa stabilization activation read?
Answer: inconclusive: 1.92% [signal inhibitor]

Question: Which “IkBa stabilization activation” value does the source give for `CCC(=O)N1CCc2cc(S(=O)(=O)N(CC)c3cccc(C)c3)ccc21` here?
Answer: inactive: -0.958%

Question: For `CCn1nc(C(=O)OCC(=O)c2c[nH]c3ccccc23)c2ccccc2c1=O`, which IkBa stabilization activation is on record?
Answer: inconclusive: -0.638% [signal inhibitor]

Question: For `NC(=O)CCCCC(N)=O`, which “IkBa stabilization activation” value is on record?
Answer: inactive: 1.22%

Question: Which IkBa stabilization activation does the source give for `Clc1cccc(Nc2ncnc3c2cnn3-c2ccccc2)c1` here?
Answer: inconclusive: 7.06% [signal inhibitor]

Question: For `CCN(CC)S(=O)(=O)c1ccc2c(c1)N(CC(=O)NCC(C)c1ccccc1)C(=O)CO2` (stereo not given), which IkBa stabilization activation is on record?
Answer: inconclusive: 2.07% [signal inhibitor]

Question: Which “IkBa stabilization activation” value does the source give for `CC(C)(C)c1ccc(C(=O)Nc2cnccn2)cc1` here?
Answer: inactive: 6.5%

Question: Which IkBa stabilization activation does the source give for `CCn1cc(C(=O)N2CCN(c3ccccc3OC)CC2)c(=O)c2cc(S(=O)(=O)N3CCC(C)CC3)ccc21` here?
Answer: inconclusive: 0.963% [signal inhibitor]

Question: For `O=C(COc1ccccc1)N1CCN(c2ncnc3c2cnn3-c2ccccc2)CC1`, which IkBa stabilization activation is on record?
Answer: inconclusive: 2.27% [signal inhibitor]

Question: With `Cc1ccc(-n2ncc3c(N4CCCCCC4)ncnc32)cc1C` as the molecule, how does the IkBa stabilization activation read?
Answer: inconclusive: 2.55% [signal inhibitor]

Question: For `CN(C)c1ccc(-c2cncnc2NCCN2CCOCC2)cc1`, which IkBa stabilization activation is on record?
Answer: inactive: 0.967% [at 11.4 µM, scaled: untreated 0%, proteasome inhibitor 100%]

Question: Which IkBa stabilization activation does the source give for `CCOc1ccc(CNC(=O)CCc2cn(CC)c3ccccc23)cc1` here?
Answer: inconclusive: -1.09% [signal inhibitor]

Question: With `O=C(NCCc1ccccc1)c1ccc(CSc2nc3ccncc3n2Cc2cccc(F)c2)cc1` as the molecule, how does the IkBa stabilization activation read?
Answer: inconclusive: 4.47% [signal inhibitor]

Question: For `COc1cc(C(=O)Nc2ccc(OCc3cc(=O)n4cccc(C)c4n3)cc2)cc(OC)c1OC`, which “IkBa stabilization activation” value is on record?
Answer: inactive: -0.159%

Question: For `CCCCOc1ccc(CN2C(=O)C(=O)c3cc(C)ccc32)cc1OC`, which “IkBa stabilization activation” value is on record?
Answer: inactive: 2.56%

Question: Which “IkBa stabilization activation” value does the source give for `O=C(c1cnc(N2CCOCC2)c2ccccc12)N1CCN(c2ccccc2F)CC1` here?
Answer: inactive: 0.0477%
